Assays:
[1] = molecular target: T1, HEK cells expressing Nav1.3 channels (Homo sapiens, UniProt Q9NY46)
[2] = molecular target: T1, HEK cells expressing Nav1.3 channels; test: cell-based

T1 sequence (Q9NY46 whole entry): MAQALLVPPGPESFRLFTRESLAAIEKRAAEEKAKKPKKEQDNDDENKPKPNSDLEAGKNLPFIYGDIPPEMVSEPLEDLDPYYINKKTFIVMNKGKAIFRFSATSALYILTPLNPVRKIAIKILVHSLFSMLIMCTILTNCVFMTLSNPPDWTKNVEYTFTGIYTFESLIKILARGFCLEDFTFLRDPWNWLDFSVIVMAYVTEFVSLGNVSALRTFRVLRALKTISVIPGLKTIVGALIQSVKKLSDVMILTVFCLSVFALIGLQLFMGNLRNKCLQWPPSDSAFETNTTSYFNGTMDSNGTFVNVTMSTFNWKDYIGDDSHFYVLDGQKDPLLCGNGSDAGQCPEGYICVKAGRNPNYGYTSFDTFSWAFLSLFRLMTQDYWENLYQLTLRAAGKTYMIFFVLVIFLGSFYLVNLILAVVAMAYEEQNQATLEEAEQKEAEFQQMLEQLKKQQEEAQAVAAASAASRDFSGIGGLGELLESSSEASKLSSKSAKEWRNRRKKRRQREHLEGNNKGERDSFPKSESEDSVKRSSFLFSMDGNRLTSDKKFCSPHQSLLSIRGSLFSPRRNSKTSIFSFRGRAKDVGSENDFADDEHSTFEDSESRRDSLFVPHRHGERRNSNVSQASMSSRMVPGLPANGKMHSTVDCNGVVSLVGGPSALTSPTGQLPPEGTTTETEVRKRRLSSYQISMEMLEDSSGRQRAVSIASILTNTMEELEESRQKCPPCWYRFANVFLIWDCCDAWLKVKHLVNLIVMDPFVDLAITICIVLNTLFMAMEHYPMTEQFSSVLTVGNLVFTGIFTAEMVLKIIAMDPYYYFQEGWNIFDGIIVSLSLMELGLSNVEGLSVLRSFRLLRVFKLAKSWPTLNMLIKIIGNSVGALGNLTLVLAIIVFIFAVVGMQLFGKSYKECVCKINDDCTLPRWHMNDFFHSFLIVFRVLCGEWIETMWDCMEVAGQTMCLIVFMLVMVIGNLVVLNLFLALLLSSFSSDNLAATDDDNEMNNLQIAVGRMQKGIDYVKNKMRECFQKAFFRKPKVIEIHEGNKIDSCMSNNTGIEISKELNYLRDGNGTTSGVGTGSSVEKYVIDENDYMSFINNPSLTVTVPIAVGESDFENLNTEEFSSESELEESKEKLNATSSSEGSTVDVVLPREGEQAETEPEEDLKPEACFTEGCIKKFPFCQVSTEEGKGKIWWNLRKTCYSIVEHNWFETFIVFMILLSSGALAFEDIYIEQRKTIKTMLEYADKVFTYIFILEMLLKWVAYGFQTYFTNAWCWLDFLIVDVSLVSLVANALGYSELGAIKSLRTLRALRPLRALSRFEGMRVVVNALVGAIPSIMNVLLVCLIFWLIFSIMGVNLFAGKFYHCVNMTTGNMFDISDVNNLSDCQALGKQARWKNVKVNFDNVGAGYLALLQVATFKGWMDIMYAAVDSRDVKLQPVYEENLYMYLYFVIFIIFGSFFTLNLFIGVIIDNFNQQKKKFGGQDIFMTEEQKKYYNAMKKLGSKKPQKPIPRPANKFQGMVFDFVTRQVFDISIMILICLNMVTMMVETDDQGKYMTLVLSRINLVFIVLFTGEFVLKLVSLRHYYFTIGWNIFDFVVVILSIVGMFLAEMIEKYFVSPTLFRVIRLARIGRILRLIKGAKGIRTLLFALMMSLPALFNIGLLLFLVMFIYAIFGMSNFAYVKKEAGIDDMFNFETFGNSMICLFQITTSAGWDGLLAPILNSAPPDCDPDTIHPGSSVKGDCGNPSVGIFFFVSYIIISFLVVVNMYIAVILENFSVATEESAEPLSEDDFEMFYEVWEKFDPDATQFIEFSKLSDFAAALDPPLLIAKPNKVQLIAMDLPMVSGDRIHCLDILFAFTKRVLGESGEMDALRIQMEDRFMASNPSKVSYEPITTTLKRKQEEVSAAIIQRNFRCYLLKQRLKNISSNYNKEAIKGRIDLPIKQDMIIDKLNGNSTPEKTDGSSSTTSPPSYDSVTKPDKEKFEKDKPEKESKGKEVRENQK

- reduction of the transient current ([1]; 3 μM, 200 msec pulse to 0 mV from -90 mV, FIG. 4): 16%
- expected effect on the transient current at the estimated plasma concentration ([1]; at approximately 5 μM): only a limited effect
- expected reduction of the persistent sodium current at the estimated plasma concentration ([1]; at approximately 5 μM): more than 60%
- selectivity for blocking the persistent sodium current relative to the transient sodium current ([1]; dose-response analysis over a four order of magnitude range, FIG. 5): significant selectivity
- EC50 [2]: 3.71 µM
SMILES: O=C(NCCCCc1ccccc1)c1cccs1 [Compound 1, thiophene-2-carboxylic acid (4-phenyl-butyl)-amide]

— US7728034B2, “Treating neurological disorders using selective antagonists of persistent sodium current” (Allergan, Inc., priority 2003, dated 2010)
